The inconclusive results got no clear call from the source; some entries with a clear call stand among them for comparison. Potencies of inconclusive entries are doubtful fits and often do not repeat. The source made the active and inactive calls. The call rests on the fitted dose curve; in most records, active means well fitted cell-killing curve with a large enough effect; inconclusive means small, poorly fitted or top-dose-only effect, or effect the other way; inactive means flat fitted curve, though single readings scatter.
Test system: HeLa
Assay: Primary qHTS to identify gynecologic anti-cancer compounds using libraries of approved drugs and bioactive compounds (AID 1345084); further: nearly all actives have a fitted effect of over 55% in size
Settings: Gynecologic cancer cell panel viability, ATPlite luminescence, 48 h; activity change, negative = cytotoxicity: at 57.5 µM (top of the series)
Excerpt: National Center for Advancing Translational Sciences [NCATS] Assay Overview: Chemotherapeutic drug responses vary from cancer to cancer and from patient to patient. These variations could be caused by a number of factors including patient genomic background, tumor mutations, tumor heterogeneity, and aspects of drug treatment. Chemotherapeutic drug resistance is also a common issue and can lead to ineffective treatment and patient death. Here we have profiled the cell killing effects of thousands of compounds to characterize the responses in three gynecological cancers, identify cancer-selective compounds, and understand the diversity of responses to these compounds from pan-cancer suppressors to single cell line selective compounds. In this assay, we screened a 7,914 compound drug library that included approved drug and bioactive compounds in six ovarian, three cervical, and […] placental cancer cell lines using the ATPlite assay for cell viability. […] The cervical cancer cell lines included HeLa, Ca Ski, and C-33 A. The placental cancer cell lines included JEG-3. HEK 293T cells were used as the control cell line to determine the selectivity index. ATPlite is a luminescence based assay reliant on the conversion of a luciferase substrate to light in the presence of ATP. As a cytotoxic compound will suppress growth and decrease the number of cells, the concentration of ATP will decrease, and less light signal will be detected in the well.
Assay Protocol Summary: 1,000 cells in 4 uL of media were dispensed into white, solid bottom 1536-well plates using a Multidrop Combi (Thermo Scientific). The Assay plates were incubated for 16 hours at 37 C with 5% CO2 in assay plates, followed by the addition of 23 nL of DMSO or drug dissolved in DMSO. Each compound was assayed in five concentrations (0.092, 0.46, 2.3, 11.5, and 57.5 uM), using the automated Wako 1536 Pin Tool workstation and incubated at 37 C with 5% CO2 48 hours. 4 uL of ATPlite, the ATP monitoring reagent, was then added to the each well of the assay plates using the Multidrop Combi reagent dispenser followed by incubation for 15 minutes at room temperature. The resulting luminescence was measured using the ViewLux plate reader.
On the % scale 0 is the no-effect control and ±100 the full control effect; potency means the concentration at half of the fitted maximal effect; tags describe the fitted curve by direction and shape.

| Structure (SMILES) | Potency | activity change, negative = cytotoxicity |
| --- | --- | --- |
| Cc1ccccc1-n1nc(-c2c(-c3ccc(F)cc3)nn3c2NC[C@@H](CO)C3)ccc1=O | inconclusive: 15.8 µM [rising, partial curve, poor fit] |  |
| CN(C)CC1CCn2c(c(C3=C(c4cn(C)c5ccccc45)C(=O)NC3=O)c3ccccc32)C1 (stereo not given) | inconclusive: 39.8 µM [cytotoxic, single point] |  |
| Fc1ccc(-c2nc(C3CCNCC3)sc2-c2ccnc(NC3CC3)n2)cc1 | inconclusive: 4.47 µM [rising, full curve, poor fit] |  |
| Fc1ccccc1-c1nc2ccn(Cc3ccc(-c4ccc(C(F)(F)F)cc4C(F)(F)F)nn3)cc-2n1 |  | inactive: 0.866% |
| COc1cc(N2CCC(O)CC2)ccc1Nc1nc(Nc2ccccc2S(=O)(=O)C(C)C)c2[nH]cnc2n1 | inconclusive: 28.2 µM [cytotoxic, single point] |  |
| O=C(Nc1ccn(Cc2ccc(O)cc2C(F)(F)F)n1)c1c(F)cccc1F | inconclusive: 447 µM |  |
| Cc1ccc(-c2cn3c4c(sc3n2)CCCC4)cc1 | active: 12.6 µM |  |
| COc1cc(O)c2c(c1)/C=C/C[C@H](O)[C@H](O)C(=O)/C=C\C[C@H](C)OC2=O | inconclusive: 17.8 µM [cytotoxic, partial curve, poor fit] |  |
| COc1cc(CCO)ccc1O[C@@H]1O[C@H](CO)[C@@H](O)[C@H](O)[C@H]1O | inconclusive: 14.1 µM [cytotoxic, single point] |  |
| Cc1ccc(C(=O)Nc2ccc(Oc3cc4cnn(C)c4cc3-c3cn[nH]c3)c(F)c2)c(=O)n1-c1ccc(F)cc1 | inconclusive: 35.5 µM [cytotoxic, single point] |  |
| COC(=O)C1=COC(OC2OC(CO)C(O)C(O)C2O)C2C1C=CC2(O)CO (stereo not given) |  | inactive: 13.9% [at 25.3 µM] |
| C=C(COC(=O)CC(C)C)C1Cc2cc(C(C)=O)ccc2O1 (stereo not given) |  | inactive: 0% |
| COc1ccccc1N1CCN(CC(O)COc2cc(OC)c(OC)c(OC)c2)CC1 (stereo not given) |  | inactive: 18.5% |
| COc1ncc(Nc2ncc([C@H](C)N3CCN(S(C)(=O)=O)CC3)cc2-c2nc(C)nc(N)n2)cc1F | inconclusive: 0.794 µM [cytotoxic, full curve, poor fit] |  |
| COc1c2c(c(C)c3c1C(=O)OC3)OC1(C)CC(O)C(C(C)(C)O)C(C)(CCC(=O)O)C1C2 (stereo not given) | inconclusive: 8.91 µM [cytotoxic, partial curve, poor fit] |  |
| CCCCCCCCCCCCCC[N+](C)(C)Cc1ccccc1 | active: 25.1 µM |  |
| C#CCN(Cc1cc2c(=O)[nH]c(C)nc2cc1Br)c1ccc(C(=O)NCc2cccnc2)cc1 | inconclusive: 0.0282 µM |  |
| CC1(C)C2CC(OC3OC(COC4OCC(O)(CO)C4O)C(O)C(O)C3O)C1(C)CC2O (stereo not given) | inconclusive: 3.55 µM [cytotoxic, single point] |  |
| CCCc1cc(C)n(C)c(=O)c1CN(C)C(=O)c1cc(-c2ccc(N3CCN(C(C)C)CC3)nc2)cc2c1cnn2C(C)C | inconclusive: 35.5 µM [rising, single point] |  |
| CO[C@H]1/C=C/[C@@](C)(O)/C=C/C(=O)O[C@H](C)[C@@H](C)CC/C=C/1C | inconclusive: 22.4 µM [cytotoxic, single point] |  |

| Structure (SMILES) | Potency | activity change, negative = cytotoxicity |
| --- | --- | --- |
| C1=C/COCc2cc(ccc2OCCN2CCCC2)Nc2nccc(n2)-c2cccc(c2)COC/1 | active: 3.98 µM |  |
| O=C(OCC1=CC(Cl)C(O)C(OC(=O)c2ccccc2)C1O)c1ccccc1 (stereo not given) |  | inactive: 8.98% [at 25.3 µM] |
| CCCCNc1ccc(-c2ccc(CN3CCOCC3)cn2)c(NC2CCC(O)CC2)c1 (stereo not given) | inconclusive: 2.51 µM [cytotoxic, single point] |  |
| Clc1ccc(CN[C@H]2CCN(c3ncc(Br)cn3)C2)c(Cl)c1 |  | inactive: 7% |
| C=C1C(=O)OC2/C=C(\CO)CC/C=C(\C=O)C(OC)C(OC(=O)C(C)CC)C12 (stereo not given) |  | inactive: -1.83% [at 25.3 µM] |
| Cc1ccc(S(=O)(=O)NC(=O)NC2CCCC2)cc1 |  | inactive: 6.12% |
| CC1(CCOC2OC(CO)C(O)C(O)C2O)CCC23OC2(C1)C(O)CC1C(C)(C(=O)O)CCCC13C (stereo not given) |  | inactive: -0.461% [at 25.3 µM] |
| CC[C@H](C)[C@H](NC(=O)[C@H]([C@@H](C)CC)N(C)C(C)=O)C(=O)N[C@H](C(=O)N[C@@H](CC(C)C)C(=O)[C@@]1(C)CO1)[C@@H](C)O | active: 0.1 µM |  |
| C=C(C)Cn1c(SCC(=O)c2cccs2)nc2sc3c(c2c1=O)CCCC3 | inconclusive: 6.31 µM [cytotoxic, full curve, poor fit] |  |
| O=C(Nc1nc2cccc(-c3ccc(CN4CCS(=O)(=O)CC4)cc3)n2n1)C1CC1 | inconclusive: 28.2 µM [cytotoxic, single point] |  |
| Cc1nc(NC(=O)N2CCCC2C(N)=O)sc1-c1ccnc(C(C)(C)C(F)(F)F)c1 (stereo not given) | inconclusive: 2.82 µM [cytotoxic, full curve] |  |
| CC1=CC(=O)CC(C)(C)C1CO[C@@H]1O[C@H](CO)[C@@H](O)[C@H](O)[C@H]1O (stereo not given in full) |  | inactive: 5.4% [at 38.5 µM] |
| Cc1cn2cc(CC(=O)N3CCC4(CC3)CN(Cc3ccc(-n5nccn5)cc3Cl)C4)nc2s1 |  | inactive: -3.2% |
| CCN1CCN(Cc2ccc(NC(=O)c3ccc(C)c(/C=C/c4cnc5[nH]ccc5c4OC)c3)cc2C(F)(F)F)CC1 | active: 15.8 µM |  |
| COc1cc(O)c([C@@H](CC(=O)N2CC(C)CC(C)C2)c2ccc3c(c2)OCO3)c(OC)c1 (stereo not given in full) |  | inactive: 12.6% |
| O=C(N/N=C/c1ccc([N+](=O)[O-])o1)c1ccc(O)cc1 |  | inactive: -18.2% |
| COc1ccc(S(=O)(=O)Nc2nnc(CC(C)C)s2)cc1 |  | inactive: 11.6% |
| CC1OC(OC2C(CO)OC(OCC3OC(OC(=O)C45CCC(C)(C)CC4C4=CCC6C7(C)CCC(OC8OC(CO)C(O)C(OC9OC(CO)C(O)C(O)C9O)C8O)C(C)(C)C7CCC6(C)C4(C)CC5)C(O)C(O)C3O)C(O)C2O)C(O)C(O)C1OC1OC(CO)C(O)C(O)C1O (stereo not given) |  | inactive: 3.66% [at 6.55 µM] |
| COC1CC(=O)C23C(=O)NC(Cc4c[nH]c5ccccc45)C2C(C)C2(C)OC2C3/C=C/CC(C)CC1O (stereo not given) | inconclusive: 11.2 µM [cytotoxic, single point] |  |
| Cc1cc(N2CCOCC2)cc2[nH]c(-c3c(NC[C@@H](O)c4cccc(Cl)c4)cc[nH]c3=O)nc12 | inconclusive: 17.8 µM [cytotoxic, partial curve, poor fit] |  |
